The values that follow come from the supplement of paper PMC8748497.

Several values for one entry are separate records, joined by “and”; a condition that tells them apart may be missing. Equal entries are not always repeated. The list shows a part of the results.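 Rule for the calls: active = GRHL reporter fold change of at least 2 over DMSO at 10 µM; inactive = below 2-fold.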 Single values are uncertain, as repeats are few or missing.
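Note: stable HEK293 line carrying repeated GRHL consensus sites upstream of a minimal promoter driving luciferase, luminescence read 24 h post-treatment, normalized to 0.5% DMSO vehicle wells.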

The subject of this assay is HEK293 GRHL-luciferase reporter. Briefly: GRHL luciferase reporter activity, fold change over DMSO control; higher = stronger GRHL reporter activation. The note with it: 10 µM; 24 h.
Regarding `C[C@H](CCC(=O)O)[C@H]1CC[C@H]2[C@@H]3C(=O)C[C@@H]4CC(=O)CC[C@]4(C)[C@H]3CC(=O)[C@]12C`, the “GRHL luciferase reporter activity” value was inactive: 0.934 and inactive: 1.23.
For the compound `CCOc1ccc(C(=O)c2ccc(O)c(O)c2O)cc1`, the “GRHL luciferase reporter activity” value is inactive: 1.79.
For `CC1(C)C2CCC1(CS(=O)(=O)O)C(=O)C2=Cc1ccc(C=C2C(=O)C3(CS(=O)(=O)O)CCC2C3(C)C)cc1`, the “GRHL luciferase reporter activity” value was inactive: 0.819.
Under `O=C(O)c1ccccc1Nc1ccccc1` stands inactive: 1.13; under `CC(C)(C)NC[C@H](O)COc1nsnc1N1CCOCC1`, inactive: 0.898; under `CC1(C)S[C@@H]2[C@H](NC(=O)[C@H](N)c3ccc(O)cc3)C(=O)N2[C@H]1C(=O)O`, inactive: 0.931.
For the compound `CCOC(=O)Nc1ccc(NCc2ccc(F)cc2)nc1N`, the “GRHL luciferase reporter activity” value was inactive: 0.79.
Next, `O=c1c(-c2ccc(O)cc2)coc2cc(O)cc(O)c12`: active: 9.64; `Cc1ccc(C(C)C)cc2c(C)ccc1-2`: inactive: 1.16; `CNNCc1ccc(C(=O)NC(C)C)cc1`: inactive: 1.11.
With `CC(C)(O)c1ccccc1CC[C@@H](SCC1(CC(=O)O)CC1)c1cccc(/C=C/c2ccc3ccc(Cl)cc3n2)c1`, the “GRHL luciferase reporter activity” value is inactive: 0.997.
Consider `CC1(C)CC2C1CC[C@]1(C)CCC3C(C(=O)O)CC(=O)O[C@@]32C1` (stereo not given in full) [3-HYDROXY-4-(SUCCIN-2-YL)-CARYOLANE delta-LACTONE], for which the “GRHL luciferase reporter activity” value is inactive: 0.794.
Regarding `C=C1CC[C@@H]2[C@](C)(CO)[C@H](O)CC[C@@]2(C)[C@@H]1C/C=C1/C(=O)OC[C@H]1O`, the “GRHL luciferase reporter activity” value is inactive: 0.956.
`COc1cc2c(cc1OC)-c1cc3ccc(OC)c(OC)c3c[n+]1CC2`: the “GRHL luciferase reporter activity” value is inactive: 0.879 and inactive: 0.733.
For the compound `O=C(Nc1ccc(C(=O)O)c(O)c1)c1ccccc1`, the “GRHL luciferase reporter activity” value was inactive: 1.14.
As for `CC(C)[C@@H]1CC[C@@H](C)C[C@H]1OC(=O)c1ccccc1`, the “GRHL luciferase reporter activity” value was inactive: 0.822.
Next, `CO/N=C(\C(=O)N[C@@H]1C(=O)N2C(C(=O)O)=C(CSC(=O)c3ccco3)CS[C@H]12)c1csc(N)n1`: inactive: 0.99.
Next, `CC(C)Cn1cnc2c(N)nc3ccccc3c21`: inactive: 1.01; `O=C1c2c(O)cccc2C([C@@H]2O[C@H](CO)[C@@H](O)[C@H](O)[C@H]2O)c2cc(CO)cc(O)c21` (stereo not given in full): inactive: 0.68; `O=C(O)[C@H]1/C(=C/CO)O[C@@H]2CC(=O)N21`: inactive: 1.08.
Consider `CC(Cc1cccc(C(F)(F)F)c1)NCCOC(=O)c1ccccc1` (stereo not given), for which the “GRHL luciferase reporter activity” value was inactive: 0.92.
As to `CC1(C)C=Cc2c(c3c(c4c(=O)c(-c5ccc(O)c(O)c5)coc24)OC(C)(C)CC3)O1`, the “GRHL luciferase reporter activity” value was active: 6.16.
Next, `CCCCCCCCCCCCCCCC(=O)OC/C=C(C)/C=C/C=C(C)/C=C/C1=C(C)CCCC1(C)C`: inactive: 1.09.
For the compound `CC(=O)NS(=O)(=O)c1ccc(NC(=O)c2ccccc2C(=O)O)cc1`, the “GRHL luciferase reporter activity” value is inactive: 1.03.
Next, `COC(=O)/C=C/c1ccc(O)c(O)c1`: inactive: 1.87.
